The list shows a part of the results.
biological target: T1, MBP-FoxP1dN (Mus musculus, UniProt P58462 326-579); assay: PD-seq (MBP pull-down with sequencing); 20 mM Tris-HCl pH 7.5, 100 mM NaCl, 1.5 mM MgCl2, 0.4 uM protein, 0.1 uM dsDNA library, 30 min, room temperature, amylose pull-down; high values mean tight binding; details: protein: recombinant; tags: His6-MBP; chain copies: 2; dsDNA, one strand shown
T1 sequence: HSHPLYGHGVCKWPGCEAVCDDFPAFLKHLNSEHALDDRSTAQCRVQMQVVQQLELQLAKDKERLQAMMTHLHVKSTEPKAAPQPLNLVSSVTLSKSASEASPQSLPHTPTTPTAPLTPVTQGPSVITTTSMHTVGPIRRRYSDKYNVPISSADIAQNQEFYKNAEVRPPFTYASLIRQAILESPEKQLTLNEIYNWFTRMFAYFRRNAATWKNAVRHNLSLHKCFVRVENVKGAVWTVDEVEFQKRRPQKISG
Summary of the method: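 The N-terminus-lacking fragment of mouse FoxP3 or FoxP1 carried a His6-MBP tag and was expressed in E. coli. At 0.4 µM it was incubated with 0.1 µM Klenow-filled degenerate double-stranded DNA library for 30 min at room temperature in Tris pH 7.5 buffer with NaCl and MgCl2, and complexes were caught on amylose resin, washed three times, released with proteinase K, PCR-barcoded and Illumina-sequenced. Binding is reads-per-million enrichment of pull-down over input with replicates pooled.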

Sequence	binding signal
GATGATTGTTCTCCCAGCTGATGAATTATCTGTATCGAGTAAACAAATTTTCCTAATCTTTCTGTTCAAGCGCCATCTAC	1.1 RPM ratio (pull-down/input)
GATGATTGTTCTCCCAGCTGATGAATTCGGTGTATCGAGTAAACAAATTTTCCTAATCTTTCTGTTCAAGCGCCATCTAC	1.17 RPM ratio (pull-down/input)
GATGATTGTTCTCCCAGCTGATGAATTCTCGATGTCGAGTAAACAAATTTTCCTAATCTTTCTGTTCAAGCGCCATCTAC	0.963 RPM ratio (pull-down/input)
GATGATTGTTCTCCCAGCTGATGAATTCCTACCATCGAGTAAACAAATTTTCCTAATCTTTCTGTTCAAGCGCCATCTAC	0.912 RPM ratio (pull-down/input)
GATGATTGTTCTCCCAGCTGATGAATTTCAGCGTTCGAGTAAACAAATTTTCCTAATCTTTCTGTTCAAGCGCCATCTAC	0.898 RPM ratio (pull-down/input)
GATGATTGTTCTCCCAGCTGATGAATTTCGGGAATCGAGTAAACAAATTTTCCTAATCTTTCTGTTCAAGCGCCATCTAC	0.902 RPM ratio (pull-down/input)
GATGATTGTTCTCCCAGCTGATGAATTTGCGTCTTCGAGTAAACAAATTTTCCTAATCTTTCTGTTCAAGCGCCATCTAC	1.1 RPM ratio (pull-down/input)
GATGATTGTTCTCCCAGCTGATGAATTGGTCACGTCGAGTAAACAAATTTTCCTAATCTTTCTGTTCAAGCGCCATCTAC	0.919 RPM ratio (pull-down/input)
GATGATTGTTCTCCCAGCTGATGAATTCTCTGTCTCGAGTAAACAAATTTTCCTAATCTTTCTGTTCAAGCGCCATCTAC	0.82 RPM ratio (pull-down/input)
GATGATTGTTCTCCCAGCTGATGAATTATCTGTGTCGAGTAAACAAATTTTCCTAATCTTTCTGTTCAAGCGCCATCTAC	1.03 RPM ratio (pull-down/input)
GATGATTGTTCTCCCAGCTGATGAATTAGCCGACTCGAGTAAACAAATTTTCCTAATCTTTCTGTTCAAGCGCCATCTAC	0.775 RPM ratio (pull-down/input)
GATGATTGTTCTCCCAGCTGATGAATTTACTGGTTCGAGTAAACAAATTTTCCTAATCTTTCTGTTCAAGCGCCATCTAC	1.15 RPM ratio (pull-down/input)
GATGATTGTTCTCCCAGCTGATGAATTAACCCTTTCGAGTAAACAAATTTTCCTAATCTTTCTGTTCAAGCGCCATCTAC	0.869 RPM ratio (pull-down/input)
GATGATTGTTCTCCCAGCTGATGAATTATGTTCTTCGAGTAAACAAATTTTCCTAATCTTTCTGTTCAAGCGCCATCTAC	1.15 RPM ratio (pull-down/input)
GATGATTGTTCTCCCAGCTGATGAATTGTCATCTTCGAGTAAACAAATTTTCCTAATCTTTCTGTTCAAGCGCCATCTAC	1.09 RPM ratio (pull-down/input)
GATGATTGTTCTCCCAGCTGATGAATTGGGAATGTCGAGTAAACAAATTTTCCTAATCTTTCTGTTCAAGCGCCATCTAC	0.87 RPM ratio (pull-down/input)
GATGATTGTTCTCCCAGCTGATGAATTGGTCTCTTCGAGTAAACAAATTTTCCTAATCTTTCTGTTCAAGCGCCATCTAC	0.927 RPM ratio (pull-down/input)
GATGATTGTTCTCCCAGCTGATGAATTGAGGGTCTCGAGTAAACAAATTTTCCTAATCTTTCTGTTCAAGCGCCATCTAC	0.782 RPM ratio (pull-down/input)

Source: paper PMC12820563, “FoxP3 forms a head-to-head dimer in vivo and stabilizes its multimerization on adjacent microsatellites”
